{"source": "paper PMC6919601", "about": "“Identification of Plasmodium dipeptidyl aminopeptidase allosteric inhibitors by high throughput screening” (PLoS ONE, 2019)", "note": "The campaign covered roughly 110,000 compounds. About 230 (0.21%) showed an effect of 50% or more. The list shows a part of the results.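 Note: 30 min substrate incubation versus DMSO and 10 µM JCP410 controls.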"}
{"biological_target": "DPAP1 (Plasmodium falciparum, UniProt Q8IIJ9)", "sequence (Q8IIJ9 whole entry, looked up)": "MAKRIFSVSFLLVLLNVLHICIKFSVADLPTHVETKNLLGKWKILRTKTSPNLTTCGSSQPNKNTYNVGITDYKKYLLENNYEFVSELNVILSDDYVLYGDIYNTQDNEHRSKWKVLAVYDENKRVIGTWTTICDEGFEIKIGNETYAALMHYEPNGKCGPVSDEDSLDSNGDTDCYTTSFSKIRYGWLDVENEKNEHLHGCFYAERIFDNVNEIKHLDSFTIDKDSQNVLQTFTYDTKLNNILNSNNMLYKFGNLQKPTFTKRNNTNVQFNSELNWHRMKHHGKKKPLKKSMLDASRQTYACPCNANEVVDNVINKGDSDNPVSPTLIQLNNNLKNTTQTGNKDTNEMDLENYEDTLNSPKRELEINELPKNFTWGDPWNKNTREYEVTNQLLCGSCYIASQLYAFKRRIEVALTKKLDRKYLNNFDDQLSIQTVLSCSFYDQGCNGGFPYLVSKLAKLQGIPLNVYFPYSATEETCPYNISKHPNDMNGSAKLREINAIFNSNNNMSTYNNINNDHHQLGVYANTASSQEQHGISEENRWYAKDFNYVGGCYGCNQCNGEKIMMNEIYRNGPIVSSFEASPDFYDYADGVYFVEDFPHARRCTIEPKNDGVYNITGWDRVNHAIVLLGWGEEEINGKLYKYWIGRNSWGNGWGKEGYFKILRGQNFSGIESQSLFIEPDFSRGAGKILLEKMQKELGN", "assay": "primary screen, percent inhibition; read by cleavage of a fluorogenic dipeptide substrate; higher = more effect of the substance", "set-up": "species or system P. falciparum D10 trophozoite lysates; single well", "units": {"% Inhibition @ 10 uM": "%"}}
{"smiles": "COc1ccc(-c2cn3c4ccccc4n(N)c3n2)cc1OC", "% Inhibition @ 10 uM": -0.828}
{"smiles": "CCOC(=O)C1=C(CN2CCN(c3ccccn3)CC2)NC(=O)NC1c1cccs1", "note": "(centres unmarked)", "% Inhibition @ 10 uM": -5.18}
{"smiles": "Cc1cccc(C)c1NC(=O)c1nccnc1C(=O)O", "% Inhibition @ 10 uM": -2.66}
{"smiles": "CC(Oc1ccc(Cl)cc1Cl)C(=O)Nc1ccccc1", "note": "(centres unmarked)", "% Inhibition @ 10 uM": 0.907}
{"smiles": "CC(NC(=O)CN(C)c1nnc(N2CCCC2=O)s1)c1ccccc1", "note": "(centres unmarked)", "% Inhibition @ 10 uM": -4.59}
{"smiles": "CCOCCCNC(=O)C(c1ccccc1)N(Cc1cccs1)C(=O)c1ccccc1O", "note": "(centres unmarked)", "% Inhibition @ 10 uM": -2.9}
{"smiles": "O=C(CSc1ncccn1)N1c2ccccc2Sc2ccccc21", "% Inhibition @ 10 uM": -2.6}
{"smiles": "CC(Nc1nc2ccccc2n2cnnc12)c1ccccc1", "note": "(centres unmarked)", "% Inhibition @ 10 uM": 0.981}
{"smiles": "N#CCNC(=O)C(CC(=O)Nc1cccc(C(N)=O)c1)CS(=O)(=O)Cc1ccccc1", "note": "(centres unmarked)", "% Inhibition @ 10 uM": -8.82}
{"smiles": "Cc1ccc(CSc2nc(=O)c3c(n2C)NC(=O)CC3c2cccc(F)c2F)cc1", "note": "(centres unmarked)", "% Inhibition @ 10 uM": 3.84}
{"smiles": "Cc1nn(C(C)C(=O)NC(C)c2ccccc2)c(=O)c2c1sc1ccccc12", "note": "(centres unmarked)", "% Inhibition @ 10 uM": -0.856}
{"smiles": "c1ccc(-n2nnnc2SCCCNCc2cccs2)cc1", "% Inhibition @ 10 uM": -2.88}
{"smiles": "CC12CCC(C(N)=O)(c3nc4ccccc4nc31)C2(C)C", "note": "(centres unmarked)", "% Inhibition @ 10 uM": -5.13}
{"smiles": "CCCNC(=O)CCCc1nnc2n(CCC)c(=O)c3sccc3n12", "% Inhibition @ 10 uM": -3.13}
{"smiles": "c1ccc(-c2csc(N3CCC(c4ccccc4)CC3)n2)cc1", "% Inhibition @ 10 uM": 1.13}
{"smiles": "CCC(C)NC(=O)C1=C(C)C(=O)OC12CCN(C(C)=O)CC2", "note": "(centres unmarked)", "% Inhibition @ 10 uM": -0.234}
{"smiles": "O=C(/C=C/c1ccccn1)c1ccc(C(=O)/C=C/c2ccccn2)cc1", "% Inhibition @ 10 uM": -0.261}
{"smiles": "CCOP(=O)(CN(CC)CC)OCC", "% Inhibition @ 10 uM": -8.49}
{"smiles": "CC(C)C[C@H](NC(=O)c1cccc(NC(=O)N2CCN(C)CC2)c1)C(=O)NCC#N", "% Inhibition @ 10 uM": -9.15}
{"smiles": "COc1ccc(Br)cc1C1C2=C(CCCC2=O)N(CCC(=O)O)C2=C1C(=O)CCC2", "% Inhibition @ 10 uM": -0.703}
{"smiles": "CCOC(=O)c1cc2c(=O)n3ccccc3nc2n(CC(C)C)/c1=N/C(=O)c1ccc(Cl)cc1", "% Inhibition @ 10 uM": -2.9}
{"smiles": "CC(Cc1cccc(C(F)(F)F)c1)NC1CCN(Cc2ccccc2)CC1", "note": "(centres unmarked)", "% Inhibition @ 10 uM": -5.31}
{"smiles": "O=C(O)c1ccc(CNCc2cccc(Oc3ccccc3)c2)cc1", "% Inhibition @ 10 uM": 1.42}
{"smiles": "CCOC(=O)N1CCC2(CC1)OC(=O)C(C)=C2C(=O)NCCCc1ccccc1", "% Inhibition @ 10 uM": 1.31}
{"smiles": "CN(C1CCCCC1)S(=O)(=O)c1ccc(-c2ccc(O)nn2)o1", "% Inhibition @ 10 uM": -0.73}
{"smiles": "COC(=O)c1ccc(OCC(O)CN2CCC(C)CC2)cc1", "note": "(centres unmarked)", "% Inhibition @ 10 uM": -1.47}
{"smiles": "NC(CC(=O)c1ccc(Cl)cc1Cl)C(Cl)(Cl)Cl", "note": "(centres unmarked)", "% Inhibition @ 10 uM": 1.33}
{"smiles": "Oc1cccc(-c2nc(O)c3c4c(sc3n2)CCCC4)c1", "% Inhibition @ 10 uM": -2.84}
{"smiles": "CC(C)CC(NC(=O)c1ccc2[nH]cnc2c1)C(=O)NCC#N", "note": "(centres unmarked)", "% Inhibition @ 10 uM": 9}
{"smiles": "Sc1nnc(C2OCCc3ccccc32)o1", "note": "(centres unmarked)", "% Inhibition @ 10 uM": -0.902}
{"smiles": "CCC(C)N(CCNC(=O)Nc1cn(CC(C)C)c(=O)c2ccccc12)Cc1ccco1", "note": "(centres unmarked)", "% Inhibition @ 10 uM": -4.02}
{"smiles": "COC(=O)C1=CN(Cc2ccc(C)cc2)C=C(C(=O)OC)C1c1cc(F)ccc1F", "% Inhibition @ 10 uM": 3.47}
{"smiles": "Cc1nnc(SCC(=O)NCCC2=CCCCC2)c2nn(-c3ccccc3)c(C)c12", "% Inhibition @ 10 uM": 2.08}
{"smiles": "Cc1cc(-c2ccc(S(=O)(=O)N3CCOCC3)s2)on1", "% Inhibition @ 10 uM": -0.342}
{"smiles": "CCOc1ccc(NC(=O)C(c2ccccc2)c2ccccc2)cc1", "% Inhibition @ 10 uM": -1.92}
{"smiles": "O=C(NC1CCCCC1)c1ccc2snnc2c1", "% Inhibition @ 10 uM": -5.36}
{"smiles": "CCOC(=O)N1CCN(C(=O)CN(C)S(=O)(=O)c2ccc(Cl)cc2)CC1", "% Inhibition @ 10 uM": -3.63}
{"smiles": "Cc1cc(C)c(S(=O)(=O)Nc2ccccc2F)c(C)c1", "% Inhibition @ 10 uM": -0.351}
{"smiles": "CCOC(=O)C1CCN(Cc2cccc(Br)c2)CC1", "% Inhibition @ 10 uM": -1.86}
{"smiles": "Cc1ccc(OCC(=O)Nc2cccc(NC(=O)COc3ccc(C)cc3)c2)cc1", "% Inhibition @ 10 uM": -0.95}
{"smiles": "COc1ccc(C2(C)CC(=O)NC2=O)cc1", "note": "(centres unmarked)", "% Inhibition @ 10 uM": -0.807}
{"smiles": "CC1C(=O)C(C)C(c2ccccc2F)NC1c1ccccc1F", "note": "(centres unmarked)", "% Inhibition @ 10 uM": -3.21}
{"smiles": "COCCCNC(=O)Cn1nc(-c2ccccc2)ccc1=O", "% Inhibition @ 10 uM": -1.21}
{"smiles": "COC(=O)c1sccc1NC(=O)c1cc2c(=O)oc3ccc(C)cc3c2s1", "% Inhibition @ 10 uM": -3.37}
{"smiles": "O=CN1CCN(Cc2ccc(Cl)c(Cl)c2)CC1", "% Inhibition @ 10 uM": 2.91}
{"smiles": "Cc1ccc(CNC(=O)N(Cc2ccc3c(c2)OCO3)C2CCN(Cc3ccccc3)CC2)cc1", "% Inhibition @ 10 uM": -0.613}
{"smiles": "O=C(O)C1CC=CCC1C(=O)NCCCc1ccccc1", "note": "(centres unmarked)", "% Inhibition @ 10 uM": 1.17}
{"smiles": "COc1ccc(Cl)cc1-n1nnc(-c2nc(-c3ccccc3)no2)c1N", "% Inhibition @ 10 uM": -4.17}
{"smiles": "Cc1cccc(C(=O)Nc2ccc(Cl)c(Cl)c2)c1", "% Inhibition @ 10 uM": -6.82}
{"smiles": "Cc1cc(OCCCOc2ccc(Cl)cc2/C=C2\\NC(=O)NC2=O)cc(C)c1Cl", "% Inhibition @ 10 uM": -3.75}
{"smiles": "COc1ccc2ccccc2c1CN1CCN(C(=O)c2ccco2)CC1", "% Inhibition @ 10 uM": 3.95}
{"smiles": "CCc1c(C#N)c(N)nc(SCC(=O)OCc2ccccc2)c1C#N", "% Inhibition @ 10 uM": 1.44}
{"smiles": "COc1ccc(C2C(C#N)=C(N)OC3=C2C(=O)CC(c2ccccc2)C3)cc1C", "note": "(centres unmarked)", "% Inhibition @ 10 uM": 5.08}
{"smiles": "COc1cccc(S(=O)(=O)NCC(=O)N2CC(C)CC(C)C2)c1", "note": "(centres unmarked)", "% Inhibition @ 10 uM": 0.755}
{"smiles": "COc1cc(C2CC(=O)N3CN(Cc4ccccc4)CSC3=C2C#N)cc(Br)c1O", "note": "(centres unmarked)", "% Inhibition @ 10 uM": 57}
{"smiles": "C/C(=N\\CCO)C1=C(O)C(=O)N(CCO)C1c1ccc(Br)cc1", "note": "(centres unmarked)", "% Inhibition @ 10 uM": 0.279}
{"smiles": "O=S(=O)(c1cccc(S(=O)(=O)N2CCCCC2)c1)N1CCCCC1", "% Inhibition @ 10 uM": 1.96}
{"smiles": "O=C(c1ccn(C(=O)NC2CCCCC2)n1)N1CCOCC1", "% Inhibition @ 10 uM": -5.62}
{"smiles": "Cc1ccc(C(=O)O)cc1-c1ccc(/C=C2/NC(=O)N(Cc3ccccc3)C2=O)o1", "% Inhibition @ 10 uM": 11.8}
{"smiles": "O=C(Nc1ccc(Cl)cc1C(=O)Nc1ccccc1C(=O)NCc1ccco1)c1ccco1", "% Inhibition @ 10 uM": 2.65}
{"smiles": "CN1CCCCc2c1nc1ccccc1c2O", "% Inhibition @ 10 uM": -0.902}
{"smiles": "Cc1nn(-c2ccccc2)c2c1C(c1ccc(Br)cc1)SCC(=O)N2", "note": "(centres unmarked)", "% Inhibition @ 10 uM": -1.33}
{"smiles": "COc1ccc(-n2nc3c(c2NC(=O)c2ccc(C)cc2)CSC3)cc1", "% Inhibition @ 10 uM": 1.39}
{"smiles": "Cc1nc2c(ccc3nsnc32)[nH]1", "% Inhibition @ 10 uM": -3.03}
{"smiles": "CCCCNC(=O)C1c2ccccc2C(=O)N2CCc3cc(OCC)c(OCC)cc3C12", "note": "(centres unmarked)", "% Inhibition @ 10 uM": 1.3}
